Experimental findings from a collection of fitness landscapes (doi:10.1016/j.celrep.2020.107928) are described below.

Over roughly 81,000 sequences, “one-hybrid fitness for binding NBS DNA” has its median near -0.1; the highest 2% begin near 0.36. The list shows a part of the results. Some results are limits rather than exact numbers.

B1: Caulobacter ParB omega fusion; a variant is named by its letters at X, in order, B8GW30 (parent)
chain: MESVVVGEPGMSEGRRGLGRGLSALLGEVDAAPAQAPGEQLGGSREAPIEILQRNPDQPRRTFREEDLEDLSNSIREKGVLQPILVRPSPDTAGEYQIVAGERAWRAAQRAGLKTVPIMVRELDDLAVLEIGIIENVQRADLNVLEEALSYKVLMEKFERTQENIAQTIGKSXSHVANXMRLLXLPDEVQSYLVSGELTAXHARAIAAAADPVALAKQIIEGGLSVRETEALARKAPNLSAGKSKGGRPPRVKDTDTQALESDLSSVLGLDVSIDHRGSTGTLTITYATLEQLDDLCNRLTRGI

Variants of B1 are the subject of this experiment. Nature of the experiment: one-hybrid fitness for binding NBS DNA (the Noc-binding site; scaled: cognate 1, non-cognate 0); higher = stronger binding. The note with it: with NBS DNA site. A digest of the protocol: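 Caulobacter ParB libraries with four specificity codons randomised were screened by bacterial one-hybrid selection in the E. coli USO strain, using a HIS3 reporter whose site lies 19 bp from the promoter. Selection ran for 48 hours at 37°C on M9 lacking histidine, with 0.1 mM IPTG and 5 mM 3-AT. Plasmids were Illumina-sequenced before and after selection, three replicate libraries were pooled, and variants with under 10 reads were dropped. Fitness is the log change in each variant's read ratio to wild type, rescaled against the cognate and non-cognate sites.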
For PCAR, the “one-hybrid fitness for binding NBS DNA” value is at most 0.2.

Take HCDS: the “one-hybrid fitness for binding NBS DNA” value is at most 0.2.

For TKVL, the “one-hybrid fitness for binding NBS DNA” value was at most 0.2.

Consider QEGH, for which the “one-hybrid fitness for binding NBS DNA” value is at most 0.2.

Turning to TRFY, the “one-hybrid fitness for binding NBS DNA” value was at most 0.2.

Regarding IMSG, the “one-hybrid fitness for binding NBS DNA” value is at most 0.2.

Regarding FCSS, the “one-hybrid fitness for binding NBS DNA” value is at most 0.2.

On to VLES, for which the “one-hybrid fitness for binding NBS DNA” value was at most 0.2.

With LVTI, the “one-hybrid fitness for binding NBS DNA” value was at most 0.2.

In the case of YPTL, the “one-hybrid fitness for binding NBS DNA” value was at most 0.2.

For the variant SAQW, the “one-hybrid fitness for binding NBS DNA” value is at most 0.2.

As for RYME, the “one-hybrid fitness for binding NBS DNA” value was at most 0.2.

Turning to QTCH, the “one-hybrid fitness for binding NBS DNA” value was 0.319.

On to ALGR, for which the “one-hybrid fitness for binding NBS DNA” value is at most 0.2.

LTAQ: the “one-hybrid fitness for binding NBS DNA” value is at most 0.2.

With VVTA, the “one-hybrid fitness for binding NBS DNA” value was at most 0.2.

For the variant PVHP, the “one-hybrid fitness for binding NBS DNA” value was at most 0.2.

On to HKGM, for which the “one-hybrid fitness for binding NBS DNA” value was at most 0.2.

With ITSD, the “one-hybrid fitness for binding NBS DNA” value is at most 0.2.

In the case of QYCS, the “one-hybrid fitness for binding NBS DNA” value was found to be 0.301.

As for TAGL, the “one-hybrid fitness for binding NBS DNA” value was at most 0.2.

PWKG: the “one-hybrid fitness for binding NBS DNA” value is at most 0.2.

For QARR, the “one-hybrid fitness for binding NBS DNA” value is 0.973.

On to QCAK, for which the “one-hybrid fitness for binding NBS DNA” value was at most 0.2.

Take IKIS: the “one-hybrid fitness for binding NBS DNA” value was at most 0.2.

As to SDKN, the “one-hybrid fitness for binding NBS DNA” value is at most 0.2.

Regarding NGLS, the “one-hybrid fitness for binding NBS DNA” value was at most 0.2.

LMHL: the “one-hybrid fitness for binding NBS DNA” value was at most 0.2.

For the variant PSRR, the “one-hybrid fitness for binding NBS DNA” value was at most 0.2.

In the case of LEVR, the “one-hybrid fitness for binding NBS DNA” value is at most 0.2.

For the variant HFYS, the “one-hybrid fitness for binding NBS DNA” value was at most 0.2.

For the variant FSTW, the “one-hybrid fitness for binding NBS DNA” value is at most 0.2.

For RYCE, the “one-hybrid fitness for binding NBS DNA” value was at most 0.2.

For the variant LTLR, the “one-hybrid fitness for binding NBS DNA” value was at most 0.2.

For the variant VHNV, the “one-hybrid fitness for binding NBS DNA” value was at most 0.2.

In the case of QQGN, the “one-hybrid fitness for binding NBS DNA” value was at most 0.2.

Regarding INGR, the “one-hybrid fitness for binding NBS DNA” value was at most 0.2.

On to DQFS, for which the “one-hybrid fitness for binding NBS DNA” value was at most 0.2.

RIVS: the “one-hybrid fitness for binding NBS DNA” value was at most 0.2.

Consider CFHR, for which the “one-hybrid fitness for binding NBS DNA” value was at most 0.2.

Turning to CSTS, the “one-hybrid fitness for binding NBS DNA” value is at most 0.2.

For the variant TGDS, the “one-hybrid fitness for binding NBS DNA” value is at most 0.2.

Regarding EQRK, the “one-hybrid fitness for binding NBS DNA” value is at most 0.2.

For the variant KLTY, the “one-hybrid fitness for binding NBS DNA” value was at most 0.2.

For the variant IRKL, the “one-hybrid fitness for binding NBS DNA” value is at most 0.2.

With KNSG, the “one-hybrid fitness for binding NBS DNA” value is at most 0.2.

RCEW: the “one-hybrid fitness for binding NBS DNA” value was at most 0.2.

As to IHQR, the “one-hybrid fitness for binding NBS DNA” value was at most 0.2.

In the case of DVSW, the “one-hybrid fitness for binding NBS DNA” value was at most 0.2.

For YSSY, the “one-hybrid fitness for binding NBS DNA” value was at most 0.2.

Regarding IQAR, the “one-hybrid fitness for binding NBS DNA” value was at most 0.2.

Take GFFS: the “one-hybrid fitness for binding NBS DNA” value is at most 0.2.

On to IEYS, for which the “one-hybrid fitness for binding NBS DNA” value was at most 0.2.

On to FRSS, for which the “one-hybrid fitness for binding NBS DNA” value is at most 0.2.

As for HTQG, the “one-hybrid fitness for binding NBS DNA” value was at most 0.2.

With CPEM, the “one-hybrid fitness for binding NBS DNA” value was at most 0.2.

For the variant RTCN, the “one-hybrid fitness for binding NBS DNA” value is at most 0.2.

For the variant PKWV, the “one-hybrid fitness for binding NBS DNA” value is at most 0.2.

With ELQR, the “one-hybrid fitness for binding NBS DNA” value is at most 0.2.

As to VAHR, the “one-hybrid fitness for binding NBS DNA” value is at most 0.2.

With PHNI, the “one-hybrid fitness for binding NBS DNA” value is at most 0.2.

Turning to VRCD, the “one-hybrid fitness for binding NBS DNA” value was at most 0.2.

In the case of HYFT, the “one-hybrid fitness for binding NBS DNA” value is at most 0.2.

For the variant HMRC, the “one-hybrid fitness for binding NBS DNA” value was at most 0.2.

With LQGF, the “one-hybrid fitness for binding NBS DNA” value is at most 0.2.

In the case of RTKA, the “one-hybrid fitness for binding NBS DNA” value turned out to be 0.479.

Turning to PNNG, the “one-hybrid fitness for binding NBS DNA” value was at most 0.2.

On to LSTW, for which the “one-hybrid fitness for binding NBS DNA” value was at most 0.2.

Turning to QTGR, the “one-hybrid fitness for binding NBS DNA” value was 0.813.

As for MVTE, the “one-hybrid fitness for binding NBS DNA” value was at most 0.2.

PWHD: the “one-hybrid fitness for binding NBS DNA” value was at most 0.2.

HYHF: the “one-hybrid fitness for binding NBS DNA” value is at most 0.2.

For AYFG, the “one-hybrid fitness for binding NBS DNA” value was at most 0.2.

As to PGDR, the “one-hybrid fitness for binding NBS DNA” value was at most 0.2.

Take YSNA: the “one-hybrid fitness for binding NBS DNA” value is at most 0.2.

As to YRNE, the “one-hybrid fitness for binding NBS DNA” value is at most 0.2.

In the case of LKHI, the “one-hybrid fitness for binding NBS DNA” value was at most 0.2.

As to SCDF, the “one-hybrid fitness for binding NBS DNA” value is at most 0.2.

Regarding EPFI, the “one-hybrid fitness for binding NBS DNA” value is at most 0.2.

In the case of QHRP, the “one-hybrid fitness for binding NBS DNA” value was 0.201.

Take MCFG: the “one-hybrid fitness for binding NBS DNA” value is at most 0.2.

Turning to YALL, the “one-hybrid fitness for binding NBS DNA” value is at most 0.2.

For the variant NGTN, the “one-hybrid fitness for binding NBS DNA” value is at most 0.2.

On to YPIF, for which the “one-hybrid fitness for binding NBS DNA” value is at most 0.2.

For NPPI, the “one-hybrid fitness for binding NBS DNA” value was at most 0.2.

For PLRD, the “one-hybrid fitness for binding NBS DNA” value was at most 0.2.

ILTH: the “one-hybrid fitness for binding NBS DNA” value is at most 0.2.

In the case of RHDA, the “one-hybrid fitness for binding NBS DNA” value is at most 0.2.

ADKP: the “one-hybrid fitness for binding NBS DNA” value is at most 0.2.

For the variant DEGG, the “one-hybrid fitness for binding NBS DNA” value was at most 0.2.

For RLDT, the “one-hybrid fitness for binding NBS DNA” value is at most 0.2.

In the case of LSAV, the “one-hybrid fitness for binding NBS DNA” value was at most 0.2.

On to SFRS, for which the “one-hybrid fitness for binding NBS DNA” value was at most 0.2.

Turning to LCCR, the “one-hybrid fitness for binding NBS DNA” value was at most 0.2.

Turning to CFRF, the “one-hybrid fitness for binding NBS DNA” value was at most 0.2.

Take SSQC: the “one-hybrid fitness for binding NBS DNA” value is at most 0.2.

As to DWSY, the “one-hybrid fitness for binding NBS DNA” value is at most 0.2.
